Drawing on publication PMC9911399, “Two distinct binding modes provide the RNA-binding protein RbFox with extraordinary sequence specificity”, this text covers binding signal for 31 molecules.

Residue numbers refer to the chain shown, from its start. The list shows a part of the results.

The labels stand for the following.
T1: RBFOX1 RRM RbFoxmut (Fox-RRM*) (Homo sapiens, UniProt Q9NWB1 109-208, R118D;E147R;N151S;E152T)
T1 sequence: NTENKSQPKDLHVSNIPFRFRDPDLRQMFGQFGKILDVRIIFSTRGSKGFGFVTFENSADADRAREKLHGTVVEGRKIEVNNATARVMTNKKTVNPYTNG

B1: GAAACGC (DNA:RNA)
RNA: GGGAGACCGGAAUUCAGAUUGUCCGAAACGCUUAAAUCCCGUCGUAGCCACCA
DNA 1: CAATCTGAATTCCGGTCTCCC
DNA 2: TGGTGGCTACGACGGGATT
B2: AUUAAGU (DNA:RNA)
RNA: B1 RNA with G25A, A26U, A27U, C29A, C31U
DNA 1: CAATCTGAATTCCGGTCTCCC
DNA 2: TGGTGGCTACGACGGGATT
B3: UCCAGGA (DNA:RNA)
RNA: B1 RNA with G25U, A26C, A27C, C29G, C31A
DNA 1: CAATCTGAATTCCGGTCTCCC
DNA 2: TGGTGGCTACGACGGGATT
B4: CAGGGGC (DNA:RNA)
RNA: B1 RNA with G25C, A27G, A28G, C29G
DNA 1: CAATCTGAATTCCGGTCTCCC
DNA 2: TGGTGGCTACGACGGGATT
B5: UUCGUCU (DNA:RNA)
RNA: GGGAGACCGGAAUUCAGAUUGUCCUUCGUCUUUAAAUCCCGUCGUAGCCACCA
DNA 1: CAATCTGAATTCCGGTCTCCC
DNA 2: TGGTGGCTACGACGGGATT
B6: GCCACAC (DNA:RNA)
RNA: B1 RNA with A26C, A27C, G30A
DNA 1: CAATCTGAATTCCGGTCTCCC
DNA 2: TGGTGGCTACGACGGGATT
B7: CAUCGAU (DNA:RNA)
RNA: B1 RNA with G25C, A27U, A28C, C29G, G30A, C31U
DNA 1: CAATCTGAATTCCGGTCTCCC
DNA 2: TGGTGGCTACGACGGGATT
B8: AUCGGCU (DNA:RNA)
RNA: B5 RNA with U25A, U29G
DNA 1: CAATCTGAATTCCGGTCTCCC
DNA 2: TGGTGGCTACGACGGGATT
B9: UUCUGAC (DNA:RNA)
RNA: B5 RNA with G28U, U29G, C30A, U31C
DNA 1: CAATCTGAATTCCGGTCTCCC
DNA 2: TGGTGGCTACGACGGGATT
B10: CACCUCC (DNA:RNA)
RNA: B5 RNA with U25C, U26A, G28C, U31C
DNA 1: CAATCTGAATTCCGGTCTCCC
DNA 2: TGGTGGCTACGACGGGATT
B11: CUCGCGG (DNA:RNA)
RNA: B5 RNA with U25C, U29C, C30G, U31G
DNA 1: CAATCTGAATTCCGGTCTCCC
DNA 2: TGGTGGCTACGACGGGATT
B12: CUCGAUA (DNA:RNA)
RNA: B5 RNA with U25C, U29A, C30U, U31A
DNA 1: CAATCTGAATTCCGGTCTCCC
DNA 2: TGGTGGCTACGACGGGATT
B13: AACGUAU (DNA:RNA)
RNA: B5 RNA with U25A, U26A, C30A
DNA 1: CAATCTGAATTCCGGTCTCCC
DNA 2: TGGTGGCTACGACGGGATT
B14: AGGUUAG (DNA:RNA)
RNA: B5 RNA with U25A, U26G, C27G, G28U, C30A, U31G
DNA 1: CAATCTGAATTCCGGTCTCCC
DNA 2: TGGTGGCTACGACGGGATT
B15: AGUUCCC (DNA:RNA)
RNA: B1 RNA with G25A, A26G, A27U, A28U, G30C
DNA 1: CAATCTGAATTCCGGTCTCCC
DNA 2: TGGTGGCTACGACGGGATT
B16: GCGUAGC (DNA:RNA)
RNA: B1 RNA with A26C, A27G, A28U, C29A
DNA 1: CAATCTGAATTCCGGTCTCCC
DNA 2: TGGTGGCTACGACGGGATT
B17: GUUUCAU (DNA:RNA)
RNA: B1 RNA with A26U, A27U, A28U, G30A, C31U
DNA 1: CAATCTGAATTCCGGTCTCCC
DNA 2: TGGTGGCTACGACGGGATT
B18: AUUGUGU (DNA:RNA)
RNA: B5 RNA with U25A, C27U, C30G
DNA 1: CAATCTGAATTCCGGTCTCCC
DNA 2: TGGTGGCTACGACGGGATT
B19: UUCUGGC (DNA:RNA)
RNA: B5 RNA with G28U, U29G, C30G, U31C
DNA 1: CAATCTGAATTCCGGTCTCCC
DNA 2: TGGTGGCTACGACGGGATT
B20: ACCCGCG (DNA:RNA)
RNA: B5 RNA with U25A, U26C, G28C, U29G, U31G
DNA 1: CAATCTGAATTCCGGTCTCCC
DNA 2: TGGTGGCTACGACGGGATT
B21: GGUUCUC (DNA:RNA)
RNA: B1 RNA with A26G, A27U, A28U, G30U
DNA 1: CAATCTGAATTCCGGTCTCCC
DNA 2: TGGTGGCTACGACGGGATT
B22: AGCAAAU (DNA:RNA)
RNA: B5 RNA with U25A, U26G, G28A, U29A, C30A
DNA 1: CAATCTGAATTCCGGTCTCCC
DNA 2: TGGTGGCTACGACGGGATT
B23: GAAACUG (DNA:RNA)
RNA: B1 RNA with G30U, C31G
DNA 1: CAATCTGAATTCCGGTCTCCC
DNA 2: TGGTGGCTACGACGGGATT
B24: CACCCAA (DNA:RNA)
RNA: B1 RNA with G25C, A27C, A28C, G30A, C31A
DNA 1: CAATCTGAATTCCGGTCTCCC
DNA 2: TGGTGGCTACGACGGGATT
B25: UAUGCGA (DNA:RNA)
RNA: B1 RNA with G25U, A27U, A28G, C31A
DNA 1: CAATCTGAATTCCGGTCTCCC
DNA 2: TGGTGGCTACGACGGGATT
B26: CUCUGUC (DNA:RNA)
RNA: B5 RNA with U25C, G28U, U29G, C30U, U31C
DNA 1: CAATCTGAATTCCGGTCTCCC
DNA 2: TGGTGGCTACGACGGGATT
B27: UACAGGG (DNA:RNA)
RNA: B1 RNA with G25U, A27C, C29G, C31G
DNA 1: CAATCTGAATTCCGGTCTCCC
DNA 2: TGGTGGCTACGACGGGATT
B28: UUUAAUG (DNA:RNA)
RNA: B5 RNA with C27U, G28A, U29A, C30U, U31G
DNA 1: CAATCTGAATTCCGGTCTCCC
DNA 2: TGGTGGCTACGACGGGATT
B29: UAAGAAC (DNA:RNA)
RNA: B1 RNA with G25U, A28G, C29A, G30A
DNA 1: CAATCTGAATTCCGGTCTCCC
DNA 2: TGGTGGCTACGACGGGATT
B30: GCAUGCU (DNA:RNA)
RNA: B1 RNA with A26C, A28U, C29G, G30C, C31U
DNA 1: CAATCTGAATTCCGGTCTCCC
DNA 2: TGGTGGCTACGACGGGATT
B31: CUUAUGC (DNA:RNA)
RNA: B1 RNA with G25C, A26U, A27U, C29U
DNA 1: CAATCTGAATTCCGGTCTCCC
DNA 2: TGGTGGCTACGACGGGATT

For the assay, the target named is T1, RBFOX1 RRM RbFoxmut (Fox-RRM*). The experiment in a line: EMSA; HiTS-Eq, 1 nM pool, 10 min; buffer printed only for the single-RNA assays: 10 mM Tris pH 7.5, 150 mM NaCl, 3.4 mM EDTA, 0.001% NP-40, 30 C. To be noted: tags: His6 N-terminal (pET28a); label: 5' 32P. In outline:
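These values rest on relative association constants, computed from read-count changes of each RNA species versus the control reaction and normalised to the cognate motif. Reads came from free RNA recovered by 8% native PAGE after purified RbFox RRM (wild type or mutant) at increasing concentrations was equilibrated for 10 min in 50 µL with 1 nM of a 5′-radiolabelled pool with 7 randomized nucleotides and DNA-annealed flanks.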
Background: A gel shift assay detects complexes by their altered migration in electrophoresis.
Consider B1, for which the binding signal was 0.0694 KA relative to UGCAUGU.

As to B2, the binding signal is 0.152 KA relative to UGCAUGU.

As for B3, the binding signal was 0.0868 KA relative to UGCAUGU.

As to B4, the binding signal is 0.0943 KA relative to UGCAUGU.

For B5, the binding signal is 0.0697 KA relative to UGCAUGU.

Regarding B6, the binding signal was 0.0681 KA relative to UGCAUGU.

For the molecule B7, the binding signal is 0.0857 KA relative to UGCAUGU.

On to B8, for which the binding signal is 0.104 KA relative to UGCAUGU.

As to B9, the binding signal is 0.094 KA relative to UGCAUGU.

Turning to B10, the binding signal is 0.0474 KA relative to UGCAUGU.

As to B11, the binding signal is 0.0781 KA relative to UGCAUGU.

In the case of B12, the binding signal is 0.131 KA relative to UGCAUGU.

Regarding B13, the binding signal was 0.106 KA relative to UGCAUGU.

As for B14, the binding signal was 0.155 KA relative to UGCAUGU.

With B15, the binding signal was 0.0549 KA relative to UGCAUGU.

For the molecule B16, the binding signal is 0.0936 KA relative to UGCAUGU.

Regarding B17, the binding signal is 0.132 KA relative to UGCAUGU.

Take B18: the binding signal was 0.189 KA relative to UGCAUGU.

B19: the binding signal is 0.127 KA relative to UGCAUGU.

For the molecule B20, the binding signal was 0.0757 KA relative to UGCAUGU.

Take B21: the binding signal was 0.0759 KA relative to UGCAUGU.

B22: the binding signal is 0.0838 KA relative to UGCAUGU.

Take B23: the binding signal was 0.0718 KA relative to UGCAUGU.

For B24, the binding signal is 0.0838 KA relative to UGCAUGU.

As for B25, the binding signal is 0.0552 KA relative to UGCAUGU.

Consider B26, for which the binding signal is 0.261 KA relative to UGCAUGU.

With B27, the binding signal is 0.0761 KA relative to UGCAUGU.

As for B28, the binding signal is 0.125 KA relative to UGCAUGU.

Regarding B29, the binding signal is 0.0462 KA relative to UGCAUGU.

On to B30, for which the binding signal is 0.736 KA relative to UGCAUGU.

Regarding B31, the binding signal was 0.122 KA relative to UGCAUGU.
